Data from PubChem BioAssay AID651820 (National Center for Advancing Translational Sciences (NCATS), 2012).
Several values for one entry are separate records, joined by “and”; a condition that tells them apart may be missing. Equal entries are not always repeated. In all, about 340,000 compounds went through this assay and about 12,000 (3.5%) were called active. The shares of active, inactive and inconclusive entries below differ from those in the screen. The call rests on the fitted dose curve; in most records, active means well fitted inhibition curve with a large enough effect; inconclusive means small, poorly fitted or top-dose-only effect, or another doubt; inactive means no such curve, though single readings can be large or run the other way. Potencies beside an inconclusive call are fits to weak or partial responses and may not hold up.

Assay: qHTS Assay for Inhibitors of Hepatitis C Virus (HCV)
Details: Huh7.5.1 HCVcc-Cre (HCVcc is cell-culture hepatitis C virus) infection, luciferase reporter, 44 h; activity change, negative = inhibition: at 41.8 µM (top of the series) unless noted
In short: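 Compounds are dispensed onto cells plated 4 h earlier at 1,000 per well, with HCVcc-Cre virus (about 0.5 moi) added next. Following 44 h of culture, luminescent signal is measured for 15 sec after 15 min with substrate at room temperature.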
On the % scale 0 is the no-effect control and ±100 the full control effect; potency means the concentration at half of the fitted maximal effect; tags describe the fitted curve by direction and shape.

Structure (SMILES) | Potency | activity change, negative = inhibition
CC(C)CCNC(=O)c1cccc(S(=O)(=O)N2CCc3ccccc32)c1 | inconclusive: 20 µM [inhibitor, single point] | 
CCOc1ccccc1N1CCN(C(=O)c2ccc(S(=O)(=O)Nc3ccccc3)cc2)CC1 | active: 10 µM | 
Cn1nnnc1SCCNCc1cc(Cl)ccc1OCc1ccccc1 | inconclusive: 15.8 µM [inhibitor, single point] | 
CCOc1ccc2nc(S(N)(=O)=O)sc2c1 | inconclusive: 31.6 µM [inhibitor, single point] | 
CN(C)c1nnnn1-c1ccc(Oc2ccccc2)cc1 | inconclusive: 31.6 µM [inhibitor, single point] | 
CCOC(=O)c1sc2nc(CC(=O)OC)nc(NCc3ccco3)c2c1C | inconclusive: 8.91 µM [inhibitor, partial curve] | 
CCSc1nsc(NC(=O)Nc2cccc(C(C)=O)c2)n1 | active: 11.2 µM | 
CCOC(=O)c1c(C(C)(C)C)oc2ccc(OCC#N)cc12 | inconclusive: 10 µM [inhibitor, partial curve] | 
COc1ccc(Nc2c3c(nc4ccccc24)CCCC3)cc1OC |  | inconclusive: -57.3% [inhibitor]
Cc1ccc(-n2c(SCC(=O)Nc3ccc4c(c3)OCO4)nnc2-c2cccs2)cc1 | inconclusive: 15.8 µM [inhibitor, single point] | 
Cc1ccc(NCC(=O)N/N=C/c2c[nH]c3ccccc23)cc1 |  | inactive: -1.52%
COc1ccc(OC)c(NC(=O)CCNS(=O)(=O)c2cccc3nsnc23)c1 |  | inactive: -10.7%
O=c1[nH]c2cc3c(cc2cc1C(c1nnnn1Cc1ccccc1)N1CCN2CCCC2C1)OCCO3 (stereo unspecified) |  | inactive: 2.17%
Cc1ccc(C(=O)c2cc([N+](=O)[O-])ccc2N2CCCCC2)cc1C | inconclusive: 15.8 µM [inhibitor, partial curve, poor fit] | 
CC(=O)Nc1cc2c(c(Cl)c1Cl)-c1ccccc1C2=O | inconclusive: 10 µM [inhibitor, partial curve] | 
CCOc1ccccc1N1CCN(S(=O)(=O)c2cc(C)ccc2OC)CC1 | inconclusive: 31.6 µM [inhibitor, single point] | 
COc1ccc(-c2csc3ncnc(N4CCN(S(=O)(=O)c5cccc(C(F)(F)F)c5)CC4)c23)cc1 | inconclusive: 10 µM [inhibitor, partial curve] | 
COC(=O)/C=C\C(C#N)(C#N)N=Cc1ccc(OC)cc1 | inconclusive: 31.6 µM [inhibitor, single point] | 
CO/N=C(\Cn1ncc(N2CCOCC2)c(Br)c1=O)c1ccc(Cl)cc1 |  | inactive: -2.85%
Cc1ccc(C)c(N2CCN(C(=O)c3ccc(N4CCOCC4)c([N+](=O)[O-])c3)CC2)c1 | inconclusive: 11.2 µM [inhibitor, single point] | 
CC(=O)c1cccc(NC(=O)c2ccc(S(=O)(=O)N3CCCCC3)cc2)c1 | inconclusive: 31.6 µM [inhibitor, single point] | 
CCN(c1ccc2c(c1)OCO2)S(=O)(=O)c1cc2c(cc1Br)CCN2C(=O)C1CC1 | inconclusive: 5.62 µM [inhibitor, full curve] | 

Structure (SMILES) | Potency | activity change, negative = inhibition
CCCOc1ccc(C(=O)Nc2ccc(S(=O)(=O)NC3=NCCCCC3)cc2)cc1 | inconclusive: 22.4 µM [inhibitor, single point] | 
CCOC(=O)c1sc(NC(=O)COC(=O)Cn2cnc3ccccc32)c(C(=O)OCC)c1C | inconclusive: 31.6 µM [inhibitor, single point] | 
COc1ccc(C2=NN(C(=O)CSc3cn(C)c4ccccc34)C(c3ccc(OC)cc3)C2)cc1 (stereo unspecified) | inconclusive: 12.6 µM [inhibitor, single point] | 
CCCCCC(=O)Nc1nc(C)c(-c2csc(Nc3cc(OC)ccc3OC)n2)s1 | inconclusive: 10 µM [inhibitor, partial curve] | 
NS(=O)(=O)c1ccc(N/C=C\C(=O)c2cccc3ccccc23)cc1 |  | inactive: -28.9%
CCCCn1c(=O)c(C(=O)c2ccccc2)nc2ccccc21 | inconclusive: 31.6 µM [inhibitor, single point] | 
COc1ccc(CC2(CO)CCN(S(=O)(=O)c3sccc3C)CC2)cc1 |  | inactive: -18.5%
CC(C)c1ccc(NC2CCCN(C(=O)CSc3nncn3C)C2)cc1 (stereo unspecified) | inconclusive: 31.6 µM [inhibitor, single point] | 
COc1ccc(C(=O)/C(C#N)=N/Nc2ccc([N+](=O)[O-])cc2)cc1 | active: 1.58 µM | 
O=C1CN(C(=O)CSc2nncs2)c2ccccc2N1 |  | inactive: 10.6%
C/C1=C\[C@@H](C)C/C=C/[C@H]2[C@@H]3O[C@]3(C)[C@@H](C)[C@H]3[C@H](Cc4c[nH]c5ccccc45)NC(=O)[C@]32C(=O)/C=C/C(=O)[C@@H]1O |  | inactive: 7.48%
CC(C)C(c1nnnn1Cc1ccco1)N1CCN(C2CCCC2)CC1 (stereo unspecified) |  | inactive: 19.7%
CN(C)c1ccc(C(=O)Nc2cccc(S(=O)(=O)N3CCCC3)c2)cc1 | inconclusive: 10 µM [inhibitor, partial curve] | 
Cc1ccc(NC(=O)c2ccc(S(=O)(=O)N3CC(C)CC(C)C3)cc2)cc1S(=O)(=O)N1CCOCC1 (stereo unspecified) | active: 7.94 µM | 
COc1cccc(OC)c1C(=O)NC(C)c1ccccc1 (stereo unspecified) | inconclusive: 22.4 µM [inhibitor, single point] | 
CCOc1ccc(NC(=O)COC(=O)c2cc([N+](=O)[O-])ccc2N2CCOCC2)cc1 | inconclusive: 0.562 µM [inhibitor, full curve] | 
COc1ccc(Cn2nnnc2C(c2ccccc2Cl)N2CCN(C3CCCC3)CC2)cc1 (stereo unspecified) |  | inactive: -20.7%
CCNc1nc2c(c(=O)n(C)c(=O)n2C)n1Cc1ccc(Cl)cc1 | active: 3.55 µM | 
CCc1nn(CCCC(=O)Nc2ccc(C)c(C)c2)c(=O)c2cc3occc3n12 | inconclusive: 1.78 µM [inhibitor, full curve] | 
CC(=O)c1ccc(OCC(=O)N2CCN(S(=O)(=O)c3ccc(C)cc3C)CC2)cc1 | inconclusive: 31.6 µM [inhibitor, single point] | 
CCOc1ccc(S(=O)(=O)NCCc2ccccn2)cc1 |  | inactive: 5.8%
Cn1c(=O)c2c(-c3ccccc3)n(C3CCCCC3)cc2n(C)c1=O | inconclusive: 14.1 µM [inhibitor, partial curve] | 

Structure (SMILES) | Potency | activity change, negative = inhibition
CC(C)[C@H](NC(=O)N1CC(=O)Nc2ccccc21)C(=O)N[C@@H](Cc1c[nH]c2ccccc12)C(=O)O | inconclusive: 31.6 µM [inhibitor, single point] | 
Cn1nccc1C(=O)N/N=C/c1c(O)ccc2ccccc12 | active: 0.891 µM | 
COc1ccc(CCN(C)C(=O)CSc2nnc(-c3ccco3)o2)cc1OC |  | inactive: -8.18%
Cc1ccc(NC(=O)CSc2nc3ccccc3nc2N2CCCC2)cc1 | inconclusive: 11.2 µM [inhibitor, partial curve] | 
CC(=O)c1cccc(NC(=O)c2ccc3c(=O)n4c(nc3c2)CCCCC4)c1 | inconclusive: 12.6 µM [inhibitor, partial curve] | 
Cc1ccccc1NC(=O)COC(=O)c1ccc2c(c1)OCCO2 |  | inconclusive: -106% [inhibitor]
CCCCNc1nnc(SCC(=O)N2CCN(S(=O)(=O)c3ccc4ccccc4c3)CC2)s1 | inconclusive: 14.1 µM [inhibitor, single point] | 
CCc1cc2c(=O)c(-c3cnn(-c4ccccc4)c3)c(C)oc2c(CN2CCCCC2)c1O | inconclusive: 17.8 µM [inhibitor, partial curve] | 
CN(C)CCNc1ccc(-c2nn(C)c(=O)c3ccccc23)cc1[N+](=O)[O-] | inconclusive: 11.2 µM [inhibitor, single point] | 
COc1ccccc1NC(=O)COC(=O)Cc1c[nH]c2ccccc12 | inconclusive: 10 µM [inhibitor, single point] | 
Cc1ccc(C2(CCNCc3ccc(N(C)C)cc3)CCOC(C(C)C)C2)cc1 (stereo unspecified) | inconclusive: 11.2 µM [inhibitor, partial curve] | 
Cc1ccc(-c2nc(CSCC(=O)NC3CCN(Cc4ccccc4)CC3)c(C)o2)cc1 | active: 12.6 µM | 
Cc1c(-c2cccc(Cl)c2)nc2ccccc2c1C(=O)NC1CC1 |  | inactive: -8.65%
Cc1c(NS(=O)(=O)c2ccc(N(C)C3CCCCC3)c([N+](=O)[O-])c2)c(=O)n(-c2ccccc2)n1C |  | inactive: -15%
CCOc1cc(Br)c(C(C)NC(=O)c2cccnc2)cc1OCC (stereo unspecified) | inconclusive: 8.91 µM [inhibitor, partial curve] | 
Cc1cccc(C)c1OCC(=O)Nc1cccc(-c2nnc(-c3ccccc3)o2)c1 | inconclusive: 2.24 µM [inhibitor, full curve] | 
C#CCn1c(S(=O)(=O)Cc2ccc(C)cc2)nc(-c2ccccc2)c1-c1ccccc1 | inconclusive: 3.98 µM [inhibitor, full curve] and inconclusive: 20 µM [inhibitor, partial curve, poor fit] | 
CCS(=O)(=O)CCSc1nc(C)cc(C)c1C#N |  | inactive: 14.9%
Cc1ccc(-n2nc3c(N4CCC(C(=O)NCCc5cccs5)CC4)nnc(C)c3c2C)cc1 | inconclusive: 1.12 µM [inhibitor, full curve] | 
CSc1nc(N2CCOCC2)c2c(c1C#N)CCCCC2 | inconclusive: 3.55 µM [inhibitor, single point] | 
C[C@H](CO)N1C[C@H](C)[C@@H](CN(C)C(=O)Nc2ccc3c(c2)OCO3)Oc2c(NC(=O)Cc3ccccc3)cccc2C1=O | inconclusive: 5.01 µM [inhibitor, single point] | 
CCOc1cccc(-c2nnc3n2N=C(c2cc(OC)ccc2OC)CS3)c1 | active: 11.2 µM | 
